Laboratory results from PubChem BioAssay AID463173 (ICCB-Longwood Screening Facility, Harvard Medical School, 2010).
About 1,700 (3.3%) of roughly 52,000 compounds were called active. No stated cut-off is given here; in the data, active means survival mostly below about 52% (no sharp cut-off); inactive means mostly above about 56%. The list shows a part of the results.

system: Wild type; assay: growth inhibition of S. aureus wild type versus tarO mutant, primary screen, teichoic acid synthesis inhibitors, RN4220, OD600 (AID 463173); settings: S. aureus RN4220 wild type/DeltatarO growth, OD600, 18 h, stronger effect = lower value, screened at 18.75 µg/mL (by protocol)

Compound	survival
COc1ccc(-n2cc3c(c2-c2cccc(Br)c2)c(=O)n(C)c(=O)n3C)cc1OC	inactive: 52%
CCCSc1nsc(NC(=O)CC)n1	inactive: 121%
CCCCc1ccc(NC(=O)Cn2cnc3c2c(=O)n(C)c(=O)n3C)cc1	inactive: 112%
COC(=O)c1ccccc1NC(=O)c1nc(SCc2ccccc2C)ncc1Cl	inactive: 90%
Cc1cc(C)cc(C(=O)Nc2ccc(-c3cn4cccnc4n3)cc2)c1	inactive: 86%
O=C(Cn1cnc2ccccc2c1=O)Nc1ccc(S(=O)(=O)Nc2nccs2)cc1	inactive: 103%
O=C(NC1CCCCC1)C(Cc1ccccc1)N1C(=O)C2C3C=CC(C3)C2C1=O (stereo not drawn)	inactive: 94%
Cc1ccc(Cn2cc(CCC(=O)NC3CCCCC3)c3ccccc32)cc1	inactive: 87%
Cc1cc(=O)[nH]c2nnc(SCc3cccc(F)c3)n12	inactive: 85%
O=c1c2oc3ccccc3c2n(Cc2ccccc2F)c(=O)n1Cc1ccco1	inactive: 83%
Cc1c(CNCCCc2ccccc2)c(C(=O)O)c(C)n1Cc1ccc(Cl)cc1	inactive: 106%
COC(=O)c1ccc(CSc2nc3ccccc3o2)cc1	inactive: 127%
COc1ccccc1NC(=O)CN1C(=O)C(c2ccc(F)cc2)=NC1(C)C	inactive: 92%
Cc1cccc(N2CCN(C(=O)Nc3ccc(F)cc3)CC2C)c1 (stereo not drawn)	inactive: 100%
Cc1ccccc1NC(=O)Nc1nnc(N(C)Cc2ccccc2)s1	inactive: 91%
Cc1c(Cl)cccc1N1CC(c2nc3ccccc3n2Cc2ccccc2F)CC1=O (stereo not drawn)	inactive: 44%
Oc1ccccc1-c1nc(/C=C/c2ccc(F)cc2)no1	inactive: 85%
CCCCCSc1nnc2c(n1)OC(c1ccc(C)s1)N(C(C)=O)c1ccccc1-2 (stereo not drawn)	inactive: 34%
COc1ccc(S(=O)(=O)NC2(C(F)(F)F)NC(=O)N(CCc3ccccc3)C2=O)cc1 (stereo not drawn)	inactive: 94%
CCS(=O)(=O)c1c(Nc2ccc(F)c(Cl)c2)sc(C(=O)c2ccccc2)c1N	inactive: 65%

Compound	survival
Cc1cccc(NC(=O)Cn2c(=O)n(Cc3ccc4c(c3)OCO4)c(=O)c3ccccc32)c1	inactive: 77%
Cc1ccc(N2CCN(C(=O)c3nn(C)c4c3CS(=O)(=O)c3ccccc3-4)CC2C)cc1 (stereo not drawn)	inactive: 76%
Cc1ccc(-c2nnn(CC(=O)N(Cc3ccccc3)C(C(=O)NC3CCCC3)c3ccco3)n2)cc1 (stereo not drawn)	inactive: 99%
CCOc1ccc(-c2ccc(NS(=O)(=O)c3cc(C)ccc3OC)cc2)nn1	inactive: 93%
O=C(C1CCC1)N1CCN(c2ccccc2)CC1	inactive: 98%
CC1CCCN(c2nc3nonc3nc2Nc2cccc(Cl)c2)C1 (stereo not drawn)	active: 0%
Cc1cc(=O)[nH]c(SCC(=O)N2CCN(c3ccccc3)CC2)n1	inactive: 87%
COc1ccc(-c2nc3ccc(C(=O)NCc4ccc(C)cc4)cc3nc2-c2ccc(OC)cc2)cc1	inactive: 91%
O=C(CC1N=C2c3ccccc3N=C(SCc3ccccc3Cl)N2C1=O)NC1CCCCC1 (stereo not drawn)	inactive: 85%
COc1ccc(Cl)cc1-n1c(CCC(=O)O)ccc1-c1ccc(C)cc1	inactive: 13%
COc1ccc(NC(=O)c2oc3ccccc3c2NC(=O)Cc2ccc(F)cc2)c(OC)c1	inactive: 86%
CC1CCN(S(=O)(=O)c2ccc3c(c2)N(CC(=O)Nc2ccc(F)c(Cl)c2)C(=O)CO3)CC1	inactive: 100%
Cc1nn(CC(=O)N2CCN(c3ccccc3)CC2)c(=O)c2cc3sccc3n12	inactive: 88%
O=c1cc(O)c2c(=O)n3c4c(cccc4c2o1)CCC3	inactive: 121%
CCC(=O)N1CCc2cc(CNS(=O)(=O)c3cc(Cl)ccc3OC)ccc21	inactive: 68%
COc1ccc(Br)cc1CNC(=O)CCSCc1ccc(Cl)cc1	inactive: 80%
Cc1ccc(OCCn2c(COc3ccc(Cl)cc3)nc3ccccc32)cc1	inactive: 74%
CCN1CCN(c2cc(C)c3cc(NC(=O)c4cc(OC)cc(OC)c4)ccc3n2)CC1	inactive: 83%
CCc1ccccc1NC(=O)Cn1c(=O)ccc2cc(S(=O)(=O)N3CCC(C)CC3)ccc21	inactive: 83%
Cc1cccc(N2CCN(S(=O)(=O)c3c(C)nc4scc(C)n4c3=O)CC2C)c1 (stereo not drawn)	inactive: 95%

Compound	survival
Cc1ccc(CCNC(=O)CN2N=C(c3ccc(C)cc3)CCC2=O)cc1	inactive: 88%
COc1ccc(N2C(=O)CCSC23C(=O)N(Cc2ccc(F)cc2)c2ccccc23)cc1Cl (stereo not drawn)	inactive: 80%
CCC(C)NC(=O)Cn1cnc2sc(C)c(S(=O)(=O)N3CCN(c4ccccc4OC)CC3)c2c1=O (stereo not drawn)	inactive: 85%
Cc1c(C(=O)Nc2cccc(Cl)c2)oc2ccc(S(=O)(=O)N3CCOCC3)cc12	inactive: 71%
COc1cccc(NC(=O)N2CCC(CN3CCOCC3)CC2)c1	inactive: 78%
CC1CCN(C(=O)c2ccc(NC(=O)c3nsc4ccccc34)cc2)CC1	inactive: 71%
CCOC(=O)c1sc(NC(=O)c2nc3nc(C)cc(C(F)F)n3n2)c(C(=O)OC)c1C	inactive: 69%
CCOc1cccc(C2c3c(oc4cc(C)c(C)cc4c3=O)C(=O)N2c2nc(C)c(C)s2)c1 (stereo not drawn)	inactive: 71%
Cc1cccc(NC(=O)CN(c2cccc(C(F)(F)F)c2)S(C)(=O)=O)c1	inactive: 117%
CC(C)NC(=O)c1ccc2c(c1)nnn2C	inactive: 112%
Cc1ccc(NC(=O)CN2C(=O)C(C)(C)c3cc(S(=O)(=O)N4CCCCC4)ccc32)c(Br)c1	inactive: 63%
Cn1nc(C(=O)Nc2ccccc2C#N)c2c1-c1ccccc1SC2	inactive: 90%
COc1cccc(-c2cc(C(=O)Nc3cccnc3Cl)no2)c1	inactive: 95%
CCOc1ccc(NC(=O)CSc2nc3ccccc3c(=O)n2CCC(=O)NC2CCCCC2)cc1	inactive: 127%
COc1ccc(NC(=O)CN(C)S(=O)(=O)c2cnc[nH]2)cc1	inactive: 76%
O=C(COC(=O)c1cc(-c2cccs2)nc2ccccc12)c1ccc(Cl)cc1	inactive: 88%
COc1cc(C(=O)NCCSc2c(C)[nH]c3ccccc23)cc(OC)c1OC	inactive: 76%
CCOc1ccc(Nc2oc(/C=C/c3cc(OC)c(OC)c(OC)c3)nc2C#N)cc1	inactive: 85%
